Test results: the supplement of paper PMC6206098
± gives the uncertainty stated by the source. Shown are siRNA guide strands that differ only in the seed, positions 2 to 7.

What was measured:
3LL = test: cell viability relative to siNT1 control; higher = less toxic; settings: concentration: 10 nM; 96 h; Mus musculus;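 note: Luminescence-based viability of cells reverse transfected in 384-well plates with lipid-complexed siRNAs built on a non-toxic 19mer backbone whose passenger strand carries 2′-O-methyl groups at positions 1 and 2, triplicates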
H460 = test: cell viability relative to lipid-only control; HeyA8 human ovarian and H460 human lung cancer; M565 mouse liver and 3LL mouse lung cancer; siNT1 is a non-toxic control siRNA; higher = less toxic; settings: concentration: 10 nM; 96 h; Homo sapiens
Description: (§1)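 Arrayed screen of 4096 siRNA duplexes, each carrying one of all possible 6mer seeds at guide-strand positions 2-7 in a fixed neutral 19mer scaffold (constant flanks: U at position 1, then ACAUGUAAACCA, plus a 3' AA overhang). The passenger strand is 2'-O-methylated at positions 1-2 so only the guide strand loads into RISC. Duplexes were reverse-transfected at 10 nM with RNAiMAX in triplicate in 384-well plates; viability was read by CellTiter-Glo ATP content 96 h after transfection. Values are % viability normalised to lipid-only wells (HeyA8, H460, M565) or to siNT1 (3LL).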

M565 = test: as above; settings: concentration: 10 nM; 96 h; Mus musculus
Description: as §1

HeyA8 = test: as above; settings: concentration: 10 nM; 96 h; Homo sapiens
Description: as §1
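Throughout, for cell viability relative to lipid-only control: reverse lipid transfection in 384-well plates, in triplicate, of duplexes on a non-toxic 19mer backbone with passenger strand 2′-O-methylated at positions 1 and 2, luminescence viability read-out.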

UCAUCAUACAUGUAAACCAAA
cell viability (3LL): 83.2 ± 14%
cell viability (H460): 51.7 ± 11%
cell viability (M565): 45.3 ± 8.7%
cell viability (HeyA8): 42.1 ± 4.8%

UCAUCCAACAUGUAAACCAAA
cell viability (3LL): 79.9 ± 14%
cell viability (H460): 47.7 ± 8.9%
cell viability (M565): 57.6 ± 8.1%
cell viability (HeyA8): 26.1 ± 1.4%

UCAUCCCACAUGUAAACCAAA
cell viability (3LL): 12.4 ± 1.3%
cell viability (H460): 21.6 ± 2.5%
cell viability (M565): 13 ± 1.9%
cell viability (HeyA8): 33.1 ± 1.9%

UCAUCCGACAUGUAAACCAAA
cell viability (3LL): 80.1 ± 16%
cell viability (H460): 34.9 ± 1.8%
cell viability (M565): 51.5 ± 2.2%
cell viability (HeyA8): 47 ± 2.2%

UCAUCCUACAUGUAAACCAAA
cell viability (3LL): 64.9 ± 7.5%
cell viability (H460): 36.5 ± 2.5%
cell viability (M565): 42.8 ± 4.8%
cell viability (HeyA8): 53.5 ± 6.4%

UCAUCGAACAUGUAAACCAAA
cell viability (3LL): 92.4 ± 7.4%
cell viability (H460): 53.5 ± 2.9%
cell viability (M565): 59.4 ± 7.3%
cell viability (HeyA8): 59.4 ± 7.6%

UCAUCGCACAUGUAAACCAAA
cell viability (3LL): 67.6 ± 13%
cell viability (H460): 43.1 ± 6.2%
cell viability (M565): 36.2 ± 6.9%
cell viability (HeyA8): 54.6 ± 9.7%

UCAUCGGACAUGUAAACCAAA
cell viability (3LL): 65 ± 12%
cell viability (H460): 43.3 ± 2.5%
cell viability (M565): 40.3 ± 6.2%
cell viability (HeyA8): 50.1 ± 5.5%

UCAUCGUACAUGUAAACCAAA
cell viability (3LL): 49.1 ± 11%
cell viability (H460): 50.9 ± 6.5%
cell viability (M565): 37.4 ± 3%
cell viability (HeyA8): 47.8 ± 6%

UCAUCUAACAUGUAAACCAAA
cell viability (3LL): 93.3 ± 17%
cell viability (H460): 47.1 ± 3%
cell viability (M565): 65 ± 14%
cell viability (HeyA8): 83.6 ± 10%

UCAUCUCACAUGUAAACCAAA
cell viability (3LL): 81.4 ± 15%
cell viability (H460): 34.6 ± 4.1%
cell viability (M565): 41.7 ± 7%
cell viability (HeyA8): 27.6 ± 2.4%

UCAUCUGACAUGUAAACCAAA
cell viability (3LL): 92.5 ± 18%
cell viability (H460): 49.5 ± 5.5%
cell viability (M565): 38 ± 7.3%
cell viability (HeyA8): 64 ± 2.4%

UCAUCUUACAUGUAAACCAAA
cell viability (3LL): 83.4 ± 14%
cell viability (H460): 39.3 ± 5.6%
cell viability (M565): 65.3 ± 6.9%
cell viability (HeyA8): 66.9 ± 4.4%

UCAUGAAACAUGUAAACCAAA
cell viability (3LL): 85.5 ± 14%
cell viability (H460): 59.7 ± 7.8%
cell viability (M565): 60.7 ± 12%
cell viability (HeyA8): 79.3 ± 4.6%

UCAUGACACAUGUAAACCAAA
cell viability (3LL): 37.4 ± 6.8%
cell viability (H460): 36 ± 3.2%
cell viability (M565): 29.9 ± 2.2%
cell viability (HeyA8): 28.4 ± 1.6%

UCAUGAGACAUGUAAACCAAA
cell viability (3LL): 86 ± 8.9%
cell viability (H460): 47.9 ± 0.82%
cell viability (M565): 47.2 ± 13%
cell viability (HeyA8): 74.8 ± 9.9%

UCAUGAUACAUGUAAACCAAA
cell viability (3LL): 49 ± 11%
cell viability (H460): 49 ± 3.7%
cell viability (M565): 49.8 ± 8.7%
cell viability (HeyA8): 38.8 ± 3.4%

UCAUGCAACAUGUAAACCAAA
cell viability (3LL): 80.3 ± 21%
cell viability (H460): 52 ± 6.5%
cell viability (M565): 50.4 ± 7.4%
cell viability (HeyA8): 60.8 ± 5%

UCAUGCCACAUGUAAACCAAA
cell viability (3LL): 12.4 ± 1.8%
cell viability (H460): 18.2 ± 1.7%
cell viability (M565): 7.91 ± 2.8%
cell viability (HeyA8): 9.31 ± 1.2%

UCAUGCGACAUGUAAACCAAA
cell viability (3LL): 78.8 ± 13%
cell viability (H460): 18.7 ± 0.78%
cell viability (M565): 53.6 ± 1%
cell viability (HeyA8): 63.3 ± 4.7%

UCAUGCUACAUGUAAACCAAA
cell viability (3LL): 28.3 ± 1.9%
cell viability (H460): 20.5 ± 1.4%
cell viability (M565): 33.9 ± 6%
cell viability (HeyA8): 8.39 ± 0.69%

UCAUGGAACAUGUAAACCAAA
cell viability (3LL): 89.4 ± 14%
cell viability (H460): 22.5 ± 2.4%
cell viability (M565): 25 ± 7.2%
cell viability (HeyA8): 41.3 ± 3%

UCAUGGCACAUGUAAACCAAA
cell viability (3LL): 20.2 ± 6.3%
cell viability (H460): 22.2 ± 1.8%
cell viability (M565): 4.66 ± 2%
cell viability (HeyA8): 14.1 ± 1.1%

UCAUGGGACAUGUAAACCAAA
cell viability (3LL): 50.7 ± 15%
cell viability (H460): 17.3 ± 1.2%
cell viability (M565): 3.2 ± 0.38%
cell viability (HeyA8): 18.5 ± 1.3%

UCAUGGUACAUGUAAACCAAA
cell viability (3LL): 79.1 ± 14%
cell viability (H460): 31.1 ± 1.8%
cell viability (M565): 27.7 ± 7.2%
cell viability (HeyA8): 30.3 ± 1.7%

UCAUGUAACAUGUAAACCAAA
cell viability (3LL): 85.1 ± 22%
cell viability (H460): 59.2 ± 13%
cell viability (M565): 60.7 ± 11%
cell viability (HeyA8): 80.2 ± 5.5%

UCAUGUCACAUGUAAACCAAA
cell viability (3LL): 34.7 ± 7.1%
cell viability (H460): 31.9 ± 1.7%
cell viability (M565): 13.6 ± 4.6%
cell viability (HeyA8): 27.6 ± 7.7%

UCAUGUGACAUGUAAACCAAA
cell viability (3LL): 93 ± 19%
cell viability (H460): 37.2 ± 7.4%
cell viability (M565): 41.2 ± 4.5%
cell viability (HeyA8): 68.5 ± 3.9%
